{"source": "paper PMC5018250", "about": "“Structure of the Bacterial Sex F Pilus Reveals an Assembly of a Stoichiometric Protein-Phospholipid Complex” (Cell, 2016)", "proteins": {"B1": {"name": "pED208 TraA pilin (natural protein)", "chain": "TDLLAGGKDDVKATFGADSFVMMCIIIAELIVGVAMYIRTKNLLILLGLVVVIVFTTVGLTFIK", "notes": "Stands in the pilus as a helical polymer (five-start helix, or stacked pentamer layers); also called pED208 pilin; pED208 pilus subunit"}}, "target": "the molecule itself", "assay": "cryo-EM structure; purified pED208 pili in PBS pH 7.4, vitrified; helical reconstruction (IHRSR), C5 point group symmetry, 3.6 A map; 28.2 degrees and rise 12.1 A between adjacent subunits", "data": [{"protein": "B1", "values": [{"measurement": "binding result", "value": "binds"}]}]}
